Experimental data as given in the supplement of paper PMC4967469.
By IC50 is meant the dose at which the fit gives 50% viability; fits outside the tested doses are given as limits. AUC, from the same fit, is the share of area under the viability curve across the 256-fold dose range; the more sensitive the line, the further below 1. For some assays here: Where the top dose is marked as inferred, it is not printed in the source and was worked back from the curve model. For some assays here: Where an entry number is given, a second screen of the drug exists; the two often differ.

Key:
Assay in all cases: Viability of human cancer cell lines after 72 h of drug (GDSC screen)
EX-527 = compound: NC(=O)C1CCCc2c1[nH]c1ccc(Cl)cc21 [EX-527]; conditions: top dose 20 µM
Experimental: (§1)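 Human cancer cell lines in 384-well plates, medium with 10% serum, drug for 72 h over a 256-fold dose range (nine 2-fold or five 4-fold steps up to the top dose). Adherent lines were fixed and stained with the nucleic acid dye Syto60, suspension lines read with resazurin; signal relative to control wells, capped at 0 and 100%. One two-parameter sigmoid per drug and line, fitted in a mixed model over all curves with the slope shared within a line.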

AZD6244 = compound: Cn1cnc2c(F)c(Nc3ccc(Br)cc3Cl)c(C(=O)NOCCO)cc21 [AZD6244]; conditions: top dose 4 µM; screen: GDSC drug entry 1498; top dose inferred
Experimental: as §1

YM201636 = compound: Nc1ccc(C(=O)Nc2cccc(-c3nc(N4CCOCC4)c4oc5ncccc5c4n3)c2)cn1 [YM201636]; conditions: top dose 5.12 µM; top dose inferred
Experimental: as §1

AZ628 = compound: Cc1ccc(NC(=O)c2cccc(C(C)(C)C#N)c2)cc1Nc1ccc2ncn(C)c(=O)c2c1 [AZ628]; conditions: top dose 4 µM; top dose inferred
Experimental: as §1

AS601245 = compound: N#CC(c1ccnc(NCCc2cccnc2)n1)c1nc2ccccc2s1 [AS601245]; conditions: top dose 8 µM; top dose inferred
Experimental: as §1

Row | Cell Line | AUC (EX-527) | IC50 (EX-527) | AUC (AZD6244) | IC50 (AZD6244) | AUC (YM201636) | IC50 (YM201636) | AUC (AZ628) | IC50 (AZ628) | AUC (AS601245) | IC50 (AS601245)
1 | SU-DHL-8 (B-cell lymphoma, suspension) | 0.987 | > 20 µM | 0.972 | > 4 µM | 0.784 | 2.02 µM | 0.74 | 1.15 µM | 0.88 | 7.31 µM
2 | SU-DHL-16 (B-cell lymphoma, suspension) | 0.996 | > 20 µM | 0.986 | > 4 µM | 0.699 | 0.971 µM | 0.975 | > 4 µM | 0.878 | 4.48 µM
3 | SUP-HD1 (Hodgkin lymphoma, suspension) | 0.988 | > 20 µM | 0.97 | > 4 µM | 0.756 | 1.68 µM | 0.856 | 2.98 µM | 0.852 | 5.75 µM
4 | SUP-M2 (anaplastic large cell lymphoma, suspension) | 0.971 | > 20 µM | 0.742 | 0.997 µM | 0.908 | 4.07 µM | 0.994 | > 4 µM | 0.906 | 6.25 µM
5 | SUP-T1 (T-cell lymphoblastic leukaemia, suspension) | 0.977 | > 20 µM | 0.981 | > 4 µM | 0.881 | 4.51 µM | 0.789 | 1.59 µM | 0.852 | 5.34 µM
6 | SW684 (fibrosarcoma, adherent) | 0.979 | > 20 µM | 0.92 | > 4 µM | 0.983 | > 5.12 µM | 0.982 | > 4 µM | 0.981 | > 8 µM
7 | SW872 (soft tissue, adherent) | 0.988 | > 20 µM | 0.667 | 0.695 µM | 0.943 | > 5.12 µM | 0.371 | 0.115 µM | 0.712 | 1.85 µM
8 | SW954 (urogenital system, adherent) | 0.977 | > 20 µM | 0.779 | 1.65 µM | 0.831 | 3.31 µM | 0.937 | > 4 µM | 0.923 | > 8 µM
9 | SW962 (urogenital system, adherent) | 0.977 | > 20 µM | 0.698 | 1.04 µM | 0.817 | 3.79 µM | 0.892 | > 4 µM | 0.85 | > 8 µM
10 | TC-71 (Ewing sarcoma, adherent) | 0.988 | > 20 µM | 0.982 | > 4 µM | 0.702 | 1.06 µM | 0.992 | > 4 µM | 0.992 | > 8 µM
11 | TE-1 (oesophagus, adherent) | 0.976 | > 20 µM | 0.806 | 2.71 µM | 0.974 | > 5.12 µM | 0.886 | > 4 µM | 0.934 | > 8 µM
12 | TE-5 (oesophagus, adherent) | 0.983 | > 20 µM | 0.798 | 2.23 µM | 0.959 | > 5.12 µM | 0.788 | 2.06 µM | 0.864 | > 8 µM
13 | TE-6 (oesophagus, adherent) | 0.984 | > 20 µM | 0.973 | > 4 µM | 0.904 | > 5.12 µM | 0.975 | > 4 µM | 0.889 | > 8 µM
14 | TE-8 (oesophagus, adherent) | 0.985 | > 20 µM | 0.777 | 1.72 µM | 0.927 | > 5.12 µM | 0.919 | > 4 µM | 0.781 | 3.57 µM
15 | TE-9 (oesophagus, adherent) | 0.981 | > 20 µM | 0.931 | > 4 µM | 0.968 | > 5.12 µM | 0.881 | > 4 µM | 0.834 | 5.5 µM
16 | TE-10 (oesophagus, adherent) | 0.983 | > 20 µM | 0.763 | 1.41 µM | 0.916 | > 5.12 µM | 0.975 | > 4 µM | 0.703 | 1.84 µM
17 | TE-12 (oesophagus, suspension) | 0.979 | > 20 µM | 0.907 | > 4 µM | 0.891 | > 5.12 µM | 0.721 | 1.23 µM | 0.688 | 1.89 µM
18 | TE-15 (oesophagus, suspension) | 0.984 | > 20 µM | 0.896 | > 4 µM | 0.894 | > 5.12 µM | 0.976 | > 4 µM | 0.615 | 1.08 µM
19 | TGBC1TKB (biliary tract, adherent) | 0.987 | > 20 µM | 0.944 | > 4 µM | 0.962 | > 5.12 µM | 0.988 | > 4 µM | 0.91 | > 8 µM
20 | TGW (neuroblastoma, adherent) | 0.976 | > 20 µM | 0.989 | > 4 µM | 0.88 | 4.04 µM | 0.984 | > 4 µM | 0.947 | > 8 µM
21 | TK10 (kidney, adherent) | 0.973 | > 20 µM | 0.672 | 0.838 µM | 0.975 | > 5.12 µM | 0.869 | > 4 µM | 0.79 | 4.4 µM
22 | TK (B-cell lymphoma, suspension) | 0.99 | > 20 µM | 0.985 | > 4 µM | 0.846 | 3.26 µM | 0.911 | > 4 µM | 0.933 | > 8 µM
23 | TUR (B-cell lymphoma, suspension) | 0.985 | > 20 µM | 0.954 | > 4 µM | 0.805 | 2.35 µM | 0.974 | > 4 µM | 0.861 | 5.95 µM
24 | U-87-MG (glioma, adherent) | 0.984 | > 20 µM | 0.841 | 3.5 µM | 0.863 | > 5.12 µM | 0.965 | > 4 µM | 0.935 | > 8 µM
25 | U-698-M (B-cell leukaemia, suspension) | 0.983 | > 20 µM | 0.957 | > 4 µM | 0.758 | 1.77 µM | 0.932 | > 4 µM | 0.758 | 2.78 µM
26 | UACC-257 (melanoma, adherent) | 0.978 | > 20 µM | 0.399 | 0.123 µM | 0.836 | 4.63 µM | 0.308 | 0.0629 µM | 0.956 | > 8 µM
